# In the supplement of paper PMC12217912:
# The other results are listed elsewhere or left out. Sequences were assembled here from the parent chain. Inactive controls read about 0.05.
# B1: TEV protease; numbered along this chain (parent)
# chain: MGESLFKGPRDYNPISSSICHLTNESDGHTTSLYGIGFGPFIITNKHLFRRNNGTLVVQSLHGVFKVKDTTTLQQHLVDGRDMIIIRMPKDFPPFPQKLKFREPQREERICLVTTNFQTKSMSSMVSDTSCTFPSGDGIFWKHWIQTKDGQCGSPLVSTRDGFIVGIHSASNFTNTNNYFTSVPKNFMELLTNQEAQQWVSGWRLNADSVLWGGHKVFMVKPEEPFQPVKEATQL
# Variants of: B1
# Assay: raw area under fraction-flipped curve 0-4 h after induction (AUC4h, not background-subtracted), DNA-recorder readout of cleavage of the substrate (dimensionless); higher = more cleavage of the substrate by the protease variant
# Conditions: temperature: 34 °C; time window: 0-4 h after rhamnose induction
# Method: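 In vivo DNA recorder in E. coli TOP10(DE3) ΔrhaA at 34 °C. Each TEVp single-site mutant (parent TEVp 0) is paired with a single-site variant of the 7-mer TEVs (canonical ENLYFQ|S). The substrate sits between flexible linkers in a Bxb1-sfGFP-TEVs-SsrA fusion, so cleavage stabilises Bxb1 and speeds flipping of a recombination array, read by NGS. The value is the raw area under the fraction-flipped curve over 0-4 h after rhamnose induction (AUC4h), with ≥20 reads per time point. It is not background-subtracted; inactive controls average about 0.047.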
# 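Also: Bxb1 expression induced with 0.2% (w/v) L-rhamnose at OD600 near 0.5, cultures sampled hourly, flipped fraction per protease–substrate barcode pair counted by paired-end Illumina sequencing.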
Variant,area with substrate ENLAFQS,area with substrate ENLCFQS,area with substrate ENLDFQS,area with substrate ENLEFQS,area with substrate ENLFFQS,area with substrate ENLKFQS,area with substrate ENLLFQS,area with substrate ENLNFQS,area with substrate ENLPFQS,area with substrate ENLQFQS,area with substrate ENLRFQS,area with substrate ENLGFQS,area with substrate ENLHFQS,area with substrate ENLIFQS,area with substrate ENLSFQS,area with substrate ENLWFQS,area with substrate ENLMFQS,area with substrate ENLTFQS,area with substrate ENLVFQS
D27T,0.0649,0.0617,0.0615,0.0124,0.0775,0.088,0.0785,0.0676,0.0611,0.065,0.0686,,,,,,,,
G28A,0.0528,,0.063,0.0513,0.0796,0.0705,,0.0569,0.0574,0.0714,0.066,0.0768,0.0669,0.063,0.0561,,,,
G28N,0.0588,,0.0736,0.0762,,,0.0528,,0.0697,,0.087,,0.0753,,,0.0664,,,
G28P,0.0638,0.0719,0.0595,0.0607,0.0764,0.0673,0.0553,0.0471,,,0.0525,,0.057,,0.0587,0.0667,,,
G28R,0.0529,0.0495,0.0609,0.0742,0.0734,0.0835,,0.0575,0.0649,0.0742,0.0659,,,0.0623,0.0498,0.0617,0.0621,,
G28W,0.0633,0.0531,0.0763,,0.0662,0.0673,0.0694,0.0643,0.0545,0.0592,0.0606,0.0474,0.0663,0.0761,0.0569,0.0609,,,
T30K,0.0626,0.075,0.0698,0.0511,0.0744,0.0905,,0.0571,,0.0591,0.0689,,0.0568,0.0846,0.069,,0.0901,,
G37E,0.0393,0.0552,0.0435,,0.0573,0.041,0.055,0.0356,0.0485,0.0391,0.0474,0.044,0.0692,0.0511,0.0488,0.0573,,0.0538,0.0523
G37K,0.0396,,0.0546,,0.0648,0.0482,0.0692,,0.0551,0.049,0.0427,,0.0601,,0.0448,0.0581,,0.0066,
F38A,0.0832,0.0616,0.0663,0.0577,0.0721,0.0694,,0.0683,0.0496,,,0.101,0.0495,0.0771,0.0514,,0.0682,,
F38L,0.0683,,0.0615,0.0645,0.0699,0.0701,0.0678,0.0544,0.0624,0.0687,0.0581,0.0388,0.0628,0.0695,0.0629,0.0676,0.0711,,
F38M,0.0599,0.0682,0.0584,0.0647,0.0772,0.0698,0.0616,0.0597,0.048,,0.0583,,0.0603,0.0778,0.0555,0.0539,0.0734,,
F41L,0.0569,0.0733,0.0619,0.0585,0.0835,0.0761,,0.0591,0.05,0.0704,0.0741,,0.0735,0.0781,0.0546,,,,
F41V,0.049,0.0787,0.0624,0.059,0.0843,0.0704,0.0777,0.0696,0.0503,0.0718,0.0713,,0.072,0.105,0.0604,0.0736,,,0.116
I42N,0.0536,,0.0376,,0.0508,0.0505,0.0379,0.0576,,0.0518,0.0541,,0.0304,0.0542,0.0401,0.0525,0.0444,,
I43C,0.0582,0.0668,0.0491,,0.0701,0.0689,0.0748,0.0675,0.0543,0.0625,0.0595,0.0878,0.0685,0.0777,0.0618,,,0.0826,0.0678
I43P,0.0581,0.0391,0.0462,0.0359,0.0315,0.04,0.0549,0.0523,0.0421,,0.0436,0.0558,0.0342,,0.0494,0.0471,,,0.0435
I43T,0.0546,0.0474,0.058,,0.0708,0.0538,,0.0585,0.0411,,0.0613,0.0367,0.0576,,0.0594,,0.0609,0.0599,0.094
T44C,0.0651,0.0607,0.0559,0.0818,0.0902,0.0854,0.076,0.0623,0.0616,0.062,0.072,0.0532,0.0678,0.068,0.067,0.0658,0.0629,,0.0914
T44Y,0.0481,0.0432,0.0497,0.013,,0.0448,0.0465,0.0463,,0.0487,0.0512,0.053,0.0384,0.0395,0.0508,0.0548,,,
N45A,0.0297,,0.0632,0.0628,0.0824,0.0681,0.0643,0.0522,0.0612,0.0579,,0.0739,,0.0547,0.0561,,0.0566,,0.0729
N45K,0.0771,0.0493,0.0711,,0.0777,,0.0493,0.0552,0.0289,,0.0648,,,0.0684,0.0663,0.0387,0.0666,,
K46L,0.055,,0.0595,0.0596,0.0636,0.0616,0.0559,0.0633,0.0594,0.0417,0.0588,0.0566,0.0562,0.0851,0.0589,,,,0.0638
H47I,0.0318,0.0611,0.0462,,0.0511,0.0624,0.0557,0.0676,0.063,0.0612,,0.0609,0.0593,0.0651,0.0636,0.0751,,,
H47V,0.0617,0.0692,0.0614,0.0953,0.0669,0.0659,0.0657,0.0611,0.0464,0.0076,0.0489,,0.0676,0.0631,0.0556,0.0582,,,
